Among all 39,000 compounds or so, about 220 (0.56%) showed activity. The list shows a part of the results.
The molecules below were run on Escherichia coli K-12 BW25113 (assay: relative growth (OD600 normalised to plate interquartile mean) (fraction); higher = less growth inhibition, active = 0.2 or less). Details: 50 µM; LB; incubation time: overnight (16-24 h).
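Note: static incubation at 37 °C against the wild-type strain, values averaged over two biological replicates.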

Row | SMILES | relative growth
1 | Nc1cc(-c2ccccc2)ccc1O | inactive: 0.97
2 | C[C@H]1CN([C@@H](C)CO)C(=O)c2cccc(NC(=O)c3ccc(-c4nccs4)cc3)c2O[C@H]1CN(C)C(=O)Nc1ccc2c(c1)OCO2 | inactive: 1.01
3 | COc1ccc(S(=O)(=O)N(C)C[C@@H]2Oc3ccc(NC(=O)c4ccncc4)cc3C(=O)N([C@@H](C)CO)C[C@@H]2C)cc1 | inactive: 0.719
4 | C[C@H](CO)N1C[C@H](C)[C@@H](CN(C)C(=O)Nc2ccc(C(F)(F)F)cc2)Oc2ccc(NC(=O)NC3CCCCC3)cc2C1=O | inactive: 1
5 | Cc1ccc(S(=O)(=O)Nc2cc([C@@H](C(=O)OC(C)C)C(=O)C(F)(F)F)c(O)c3ccccc23)c(C)c1 | inactive: 0.994
6 | C[C@@H]1CN([C@@H](C)CO)C(=O)c2cc(NC(=O)C3CCCCC3)ccc2O[C@@H](C)CCCCO[C@@H]1CN(C)Cc1ccc2c(c1)OCO2 | inactive: 0.976
7 | C[C@@H]1CN([C@H](C)CO)C(=O)c2cc(NC(=O)Cc3cn(C)c4ccccc34)ccc2O[C@H]1CN(C)Cc1ccc(Cl)c(Cl)c1 | inactive: 1.02
8 | O=C(C[C@@H]1C[C@H]2c3cc(NS(=O)(=O)c4ccc(F)cc4)ccc3O[C@H]2[C@H](CO)O1)NCCc1ccccc1 | inactive: 1
9 | C[C@@H]1CN([C@H](C)CO)S(=O)(=O)c2ccc(C#Cc3ccccc3)cc2O[C@@H]1CN(C)C(=O)c1ccccn1 | inactive: 1.02
10 | COc1ccc(NC(=O)Nc2ccc3c(c2)C(=O)N([C@@H](C)CO)C[C@H](C)[C@@H](CN(C)C(=O)C2CCCCC2)OCCCC[C@H](C)O3)cc1 | inactive: 1.03
11 | COC(=O)[C@H](Cc1ccccc1)N1CC2=C[C@@H](C3CC3)n3c(=O)n(C)c(=O)n3[C@H]2[C@@H]1[C@@H](O)CCn1cc(-c2ccc(C(=O)NO)s2)nn1 | inactive: 0.973
12 | COc1ccc(S(=O)(=O)N(C)C[C@H]2Oc3ccc(NC(=O)Nc4cccc5ccccc45)cc3C(=O)N([C@H](C)CO)C[C@H]2C)cc1 | inactive: 1.01
13 | COCC(=O)N1C[C@@H](C)[C@@H](OC)CN(C)C(=O)c2cc(NC(=O)c3ccc(OC)cc3)ccc2OC[C@H]1C | inactive: 0.979
14 | CN1C(=O)c2cc(NC(=O)c3cnccn3)ccc2OC[C@H]2O[C@@H](CC(=O)N[C@@H]3CCN(Cc4ccccc4)C3)CC[C@H]21 | inactive: 1
15 | C[C@@H]1CCCCO[C@@H](CN(C)C(=O)Nc2ccc(F)cc2)[C@H](C)CN([C@@H](C)CO)C(=O)c2cc(NC(=O)Cc3ccccc3)ccc2O1 | inactive: 1.03
16 | O=C(C[C@@H]1CC[C@@H]2[C@H](COC[C@@H](O)CN2S(=O)(=O)c2ccc(Cl)cc2)O1)NCC1CCCCC1 | inactive: 0.976
17 | C[C@@H]1CN([C@H](C)CO)C(=O)c2cc(NC(=O)Cc3cn(C)c4ccccc34)ccc2O[C@H]1CN(C)CC1CCCCC1 | inactive: 0.983
18 | C[C@@H]1CN([C@@H](C)CO)S(=O)(=O)c2ccc(-c3cccc(C#N)c3)cc2O[C@H]1CN(C)C(=O)c1ccncc1 | inactive: 0.949
19 | C[C@@H]1CN([C@H](C)CO)C(=O)c2cc(NC(=O)Cc3ccccc3)ccc2O[C@H]1CN(C)Cc1ccc(C(=O)Nc2ccccc2N)cc1 | inactive: 1.01

Row | SMILES | relative growth
20 | COCCNC(=O)C[C@H]1CC[C@@H]2[C@H](COC[C@H](O)CN2C(=O)Nc2ccccc2OC)O1 | inactive: 1
21 | C[C@H](CO)N1C[C@H](C)[C@@H](CN(C)S(=O)(=O)c2cccs2)Oc2c(NS(=O)(=O)c3ccc(F)cc3)cccc2C1=O | inactive: 1.01
22 | C[C@H](CO)N1C[C@H](C)[C@H](CN(C)C(=O)C2CCOCC2)Oc2ncc(C#Cc3cccc(F)c3)cc2C1=O | inactive: 1.01
23 | O=C(Cc1ccncc1)NCC[C@H]1CC[C@@H](NC(=O)C2CCOCC2)[C@@H](CO)O1 | inactive: 1.01
24 | C[C@H]1CN([C@@H](C)CO)C(=O)Cc2cc(NS(=O)(=O)c3ccccc3)ccc2O[C@@H]1CN(C)S(=O)(=O)c1ccccc1 | inactive: 0.983
25 | C[C@H](CO)N1C[C@H](C)[C@H](CN(C)S(C)(=O)=O)Oc2cc(-c3ccccc3F)ccc2S1(=O)=O | inactive: 0.986
26 | COc1ccc(NC(=O)N(C)C[C@H]2Oc3c(NC(=O)c4ccc(-c5nccs5)cc4)cccc3C(=O)N([C@H](C)CO)C[C@H]2C)cc1 | inactive: 0.988
27 | COc1ccccc1CNC(=O)C[C@H]1C[C@@H]2c3cc(NC(=O)c4cccnc4)ccc3O[C@@H]2[C@H](CO)O1 | inactive: 1.02
28 | C[C@H]1CN([C@@H](C)CO)C(=O)Cc2cc(NC(=O)Nc3ccc4c(c3)OCO4)ccc2O[C@H]1CN(C)Cc1ccc(Cl)c(Cl)c1 | inactive: 0.985
29 | Cc1ncc(CO)c(CO)c1O.Cl | inactive: 1.05
30 | Cc1ccc(S(=O)(=O)Nc2cccc3c2O[C@@H](CN(C)S(=O)(=O)c2ccc(F)cc2)[C@H](C)CN([C@@H](C)CO)C3=O)cc1 | inactive: 0.99
31 | COc1cccc(S(=O)(=O)N(C)C[C@@H]2Oc3ncc(-c4cccc(C(=O)N(C)C)c4)cc3C(=O)N([C@H](C)CO)C[C@H]2C)c1 | inactive: 1.04
32 | C[C@H]1CCCCO[C@H](CN(C)C(=O)Nc2cccc3ccccc23)[C@@H](C)CN([C@@H](C)CO)C(=O)c2cc(NC(=O)CCC(F)(F)F)ccc2O1 | inactive: 0.983
33 | Cc1cc(C(=O)Nc2cccc3c2O[C@@H](CN(C)S(C)(=O)=O)[C@H](C)CN([C@@H](C)CO)C3=O)n(C)n1 | inactive: 1.01
34 | C[C@@H]1CN([C@H](C)CO)C(=O)c2cc(NS(=O)(=O)c3ccc(Cl)cc3)ccc2O[C@@H](C)CCCCO[C@H]1CN(C)Cc1ccccc1 | inactive: 0.965
35 | C[C@@H]1CCCCO[C@@H](CN(C)Cc2ccc(C(F)(F)F)cc2)[C@@H](C)CN([C@H](C)CO)C(=O)c2cc(NS(=O)(=O)c3cn(C)cn3)ccc2O1 | inactive: 1.02
36 | Cc1ccc(S(=O)(=O)Nc2ccc3c(c2)C(=O)N([C@H](C)CO)C[C@@H](C)[C@H](CN(C)Cc2ccncc2)OCCCC[C@@H](C)O3)cc1 | inactive: 1.01
37 | CCCC#Cc1ccc2c(c1)O[C@H](CN(C)S(=O)(=O)c1cccc(OC)c1)[C@H](C)CN([C@H](C)CO)S2(=O)=O | inactive: 1.01
38 | COC(=O)C1=C(C)NC(C)=C(C(=O)OC(C)(C)CN(C)CCC(c2ccccc2)c2ccccc2)[C@@H]1c1cccc([N+](=O)[O-])c1 | inactive: 1.02

Row | SMILES | relative growth
39 | NCCC(O)(P(=O)(O)O)P(=O)(O)O | inactive: 1.01
40 | C[C@@H]1CN([C@H](C)CO)C(=O)c2cccc(NS(=O)(=O)c3ccc(F)cc3)c2O[C@@H]1CN(C)Cc1ccc(-c2ccccc2)cc1 | inactive: 1.01
41 | C[C@@H]1CN([C@@H](C)CO)C(=O)Cc2cc(NC(=O)Cc3ccccc3)ccc2O[C@@H]1CN(C)S(C)(=O)=O | inactive: 1.02
42 | CN(C)CC(=O)N1[C@@H]2c3cccc(=O)n3C[C@H]1[C@H](CO)[C@H]2C(=O)NCc1ccccc1 | inactive: 0.983
43 | Cc1noc(C)c1S(=O)(=O)N(C)C[C@H]1OCCCC[C@@H](C)Oc2ccc(NC(=O)Nc3cccc4ccccc34)cc2C(=O)N([C@@H](C)CO)C[C@H]1C | inactive: 1.02
44 | Cn1cnc(S(=O)(=O)N[C@@H]2CC[C@@H](CC(=O)NCC3CC3)O[C@@H]2CO)c1 | inactive: 0.958
45 | C[C@@H]1CN([C@@H](C)CO)S(=O)(=O)c2ccc(Br)cc2O[C@H]1CN(C)C(=O)c1ccncc1 | inactive: 0.958
46 | C[C@@H]1CCCCO[C@@H](CN(C)CC2CCCCC2)[C@@H](C)CN([C@H](C)CO)C(=O)c2cc(NC(=O)Nc3ccc4c(c3)OCO4)ccc2O1 | inactive: 1.01
47 | COc1ccc(NC(=O)Nc2ccc3c(c2)C(=O)N([C@@H](C)CO)C[C@H](C)[C@H](CN(C)Cc2ccc(C(=O)O)cc2)OCCCC[C@@H](C)O3)cc1 | inactive: 0.984
48 | NC(=O)NCC#Cc1ccc2c(c1)[C@]1(C(=O)N2)[C@H](C(=O)N2CCCCCCC2)[C@H]2C(=O)O[C@H](c3ccccc3)[C@H](c3ccccc3)N2[C@@H]1c1ccccc1OCCO | inactive: 1.04
49 | Cc1onc(C(=O)N2CCOCC2)c1[N+](=O)[O-] | inactive: 1.01
50 | O=C(N[C@H](c1ccc(F)cc1)c1ccc2ccccc2n1)C1CCN(Cc2ccc(Oc3ccccc3)cc2)CC1 | inactive: 1.03
51 | C[C@H]1CN([C@@H](C)CO)C(=O)c2cc(NC(=O)CCN3CCOCC3)ccc2O[C@H]1CN(C)C(=O)Nc1ccccc1 | inactive: 0.992
52 | COc1ccc(NC(=O)N(C)C[C@H]2OCCCC[C@@H](C)Oc3ccc(NC(=O)C4CCCCC4)cc3C(=O)N([C@@H](C)CO)C[C@H]2C)cc1 | inactive: 0.995
53 | C[C@@H]1CCCCO[C@@H](CN(C)C(=O)Nc2ccc(F)cc2)[C@H](C)CN([C@@H](C)CO)C(=O)c2cc(NC(=O)CCC(F)(F)F)ccc2O1 | inactive: 0.986
54 | COc1ccc(S(=O)(=O)N(C)C[C@H]2Oc3ccc(NS(=O)(=O)c4ccc(C)cc4)cc3C(=O)N([C@@H](C)CO)C[C@@H]2C)cc1 | inactive: 1.04
55 | Cc1noc(C)c1S(=O)(=O)Nc1ccc2c(c1)C(=O)N([C@@H](C)CO)C[C@H](C)[C@H](CN(C)CC1CCCCC1)OCCCC[C@@H](C)O2 | inactive: 0.982
56 | O=C(C[C@H]1C=C[C@H](NC(=O)Nc2ccc3c(c2)OCO3)[C@@H](CO)O1)NCCCN1CCOCC1 | inactive: 0.996
57 | Cc1ccc(S(=O)(=O)N(C)C[C@H]2OCCCC[C@@H](C)Oc3ccc(NC(=O)Nc4ccc5c(c4)OCO5)cc3C(=O)N([C@@H](C)CO)C[C@@H]2C)cc1 | inactive: 1.06

From the supplement of paper PMC9446081
